Source: the supplement of paper PMC12217912
Some of the results follow. The full chains were built here from the parent and the listed change. Inactive controls read about 0.05.

B1: TEV protease; numbered along this chain (parent)
chain: MGESLFKGPRDYNPISSSICHLTNESDGHTTSLYGIGFGPFIITNKHLFRRNNGTLVVQSLHGVFKVKDTTTLQQHLVDGRDMIIIRMPKDFPPFPQKLKFREPQREERICLVTTNFQTKSMSSMVSDTSCTFPSGDGIFWKHWIQTKDGQCGSPLVSTRDGFIVGIHSASNFTNTNNYFTSVPKNFMELLTNQEAQQWVSGWRLNADSVLWGGHKVFMVKPEEPFQPVKEATQL

Variants of: B1
Experiment: raw area under fraction-flipped curve 0-4 h after induction (AUC4h, not background-subtracted), DNA-recorder readout of cleavage of the substrate (dimensionless); higher = more cleavage of the substrate by the protease variant
Details: temperature: 34 °C; time window: 0-4 h after rhamnose induction
Procedure: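 In vivo DNA recorder in E. coli TOP10(DE3) ΔrhaA at 34 °C. Each TEVp single-site mutant (parent TEVp 0) is paired with a single-site variant of the 7-mer TEVs (canonical ENLYFQ|S). The substrate sits between flexible linkers in a Bxb1-sfGFP-TEVs-SsrA fusion, so cleavage stabilises Bxb1 and speeds flipping of a recombination array, read by NGS. The value is the raw area under the fraction-flipped curve over 0-4 h after rhamnose induction (AUC4h), with ≥20 reads per time point. It is not background-subtracted; inactive controls average about 0.047.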
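Note: Bxb1 expression induced with 0.2% (w/v) L-rhamnose at OD600 near 0.5, cultures sampled hourly, flipped fraction per protease–substrate barcode pair counted by paired-end Illumina sequencing.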

Variant	area with substrate ENCYFQS	area with substrate ENFYFQS	area with substrate ENHYFQS	area with substrate ENIYFQS	area with substrate ENKYFQS	area with substrate ENQYFQS	area with substrate ENSYFQS	area with substrate ENVYFQS	area with substrate ENDYFQS	area with substrate ENEYFQS	area with substrate ENGYFQS	area with substrate ENMYFQS	area with substrate ENNYFQS	area with substrate ENPYFQS	area with substrate ENRYFQS	area with substrate ENTYFQS	area with substrate ENYYFQS	area with substrate ENAYFQS	area with substrate ENWYFQS
L205A	0.0528	0.0738	0.0579	0.0794	0.056	0.0422	0.0526	0.0507	–	–	–	–	–	–	–	–	–	–	–
R51G	0.0607	–	–	–	–	0.0624	–	0.0776	0.059	0.0584	0.0713	0.103	0.019	–	–	–	–	–	–
C111F	0.0816	0.068	0.0568	–	–	0.0608	0.0548	0.102	0.0546	0.0479	0.0641	–	0.0643	0.0518	0.0549	0.0833	0.0603	–	–
N186Q	0.0693	–	–	–	–	0.0546	–	0.093	–	–	0.0796	–	0.0568	–	–	0.0539	0.0586	–	–
I139D	0.0615	–	0.0676	–	0.104	–	0.0642	0.0701	0.0607	0.0694	0.0648	–	0.0646	0.0579	0.0549	0.0456	–	–	–
L235N	–	–	0.0492	–	–	0.0653	0.0626	0.0787	–	–	0.0906	–	–	–	–	0.0567	–	0.069	–
L235S	–	–	0.0611	–	0.0638	0.0779	–	–	0.0752	–	0.0636	–	–	–	–	–	–	0.0683	–
L235I	–	0.0601	0.0616	0.0931	–	0.0538	0.0349	–	0.0672	0.0598	0.068	–	–	0.0545	–	–	0.0613	0.0526	–
L235A	–	–	0.0402	0.0979	–	0.0435	0.0585	0.0689	0.067	0.068	0.0613	–	0.0546	–	–	0.09	–	0.0316	0.0605
Q227N	0.0863	0.082	0.0572	0.129	0.0536	0.0561	0.0646	0.0847	0.0618	0.0496	0.06	–	0.0694	0.107	0.047	0.0525	–	0.0845	–
Q227Y	0.059	–	0.0662	–	–	0.0634	0.0632	0.0774	0.0756	–	0.0577	0.0717	0.0596	–	0.0518	0.049	0.0583	0.0504	–
Q197F	0.0568	0.0629	–	–	–	0.0592	0.0708	0.0822	0.061	0.0493	0.0445	–	0.0822	0.047	–	0.0589	–	–	–
Q197E	0.0806	0.0473	–	0.0768	0.063	–	0.0889	0.0799	–	–	0.0805	0.066	0.0894	0.0651	–	–	–	–	0.003
D208G	0.0541	0.0545	0.0636	–	–	0.0584	0.0545	0.0704	0.0387	–	0.0546	–	0.0612	–	–	–	0.0674	–	–
M219H	0.0676	0.054	0.0534	–	0.0512	0.0694	0.0586	–	0.0618	0.057	–	0.072	0.0571	–	0.0794	0.0568	0.0605	–	–
E107C	0.0526	–	–	–	0.0495	–	0.0614	–	0.0617	0.0713	0.0674	–	0.0776	0.0546	–	–	–	–	0.0735
S201Y	0.0706	–	–	0.0962	–	0.0563	0.0567	0.05	0.0567	0.0954	–	–	0.0651	0.0724	0.0199	–	–	–	–

Variant	area with substrate ENCYFQS	area with substrate ENFYFQS	area with substrate ENHYFQS	area with substrate ENIYFQS	area with substrate ENKYFQS	area with substrate ENQYFQS	area with substrate ENSYFQS	area with substrate ENVYFQS	area with substrate ENDYFQS	area with substrate ENEYFQS	area with substrate ENGYFQS	area with substrate ENMYFQS	area with substrate ENNYFQS	area with substrate ENPYFQS	area with substrate ENRYFQS	area with substrate ENTYFQS	area with substrate ENYYFQS	area with substrate ENAYFQS	area with substrate ENWYFQS
H143I	0.0668	–	–	–	0.0792	0.0498	–	–	0.0578	–	0.0589	–	–	–	0.0433	0.0512	–	–	–
E195G	0.0489	0.0824	–	–	0.0623	0.0624	0.0705	0.0788	0.0691	–	0.0743	–	0.0665	–	–	0.0729	0.057	–	0.0617
T115V	0.0608	0.0628	–	–	–	0.0536	0.0653	–	0.0601	0.0531	–	–	0.0679	–	0.0624	–	0.0548	–	–
M83Y	0.0553	–	0.0498	–	–	0.041	0.0538	–	–	–	–	–	0.0604	–	–	–	–	–	–
M83A	0.0613	0.0684	0.0626	0.0875	–	0.0522	0.0583	0.0634	0.077	0.0664	0.0569	–	0.0601	0.0474	0.0595	0.0606	0.0575	–	0.0617
M83S	0.0578	0.0642	0.0531	–	–	0.0548	0.0595	0.0604	0.0605	0.0602	0.0582	0.0532	0.0585	0.0635	0.0566	–	–	–	–
T30V	0.0693	–	0.0435	–	–	–	0.0743	–	0.0281	0.108	0.0741	–	0.0536	–	–	–	–	–	0.0723
E231R	–	0.0667	0.0722	–	–	0.0623	0.065	0.0784	0.0572	0.048	0.0466	0.1	0.0484	–	0.0575	–	0.0689	0.051	–
E231P	–	–	0.0565	0.115	–	0.0681	0.0595	0.0772	0.0557	0.0563	–	–	–	–	–	0.0762	–	0.0615	–
P94M	0.0638	–	0.059	–	–	0.0661	0.068	0.0536	0.0687	0.0481	–	–	–	0.0441	0.0382	–	0.0557	–	–
L190C	0.0766	0.06	0.0573	0.102	–	0.0558	0.0693	0.0999	0.0604	0.0627	–	–	–	–	–	0.0561	–	–	–
K66C	0.0679	0.0679	–	0.117	–	0.0637	0.0607	0.0807	–	–	0.0698	0.0721	0.0723	–	–	0.0706	0.065	–	–
G63K	0.0699	0.0684	–	–	–	–	–	–	–	0.0522	–	–	0.0487	–	–	0.058	–	–	–
V200R	0.0629	–	–	–	–	0.0643	0.0611	–	–	0.0488	–	–	–	–	0.0417	–	–	–	–
Q59T	0.0683	0.0264	0.0567	–	–	0.058	0.0397	0.0772	–	0.0636	–	–	–	–	0.0497	0.0672	0.0449	–	–
A207L	0.0769	0.0591	0.0713	–	–	–	0.0611	0.0641	0.0623	–	–	0.099	–	0.0445	–	–	0.0587	–	–
F38D	0.0517	–	–	–	–	0.0698	–	–	0.0146	0.0387	–	–	0.0439	–	–	–	–	–	–
